“And” between values parts separate entries of the source, which are not always exact repeats. Equal entries are not always repeated. Out of some 110,000 compounds screened, about 230 (0.21%) showed an effect of 50% or more. The list shows a part of the results.
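Also: 30 min substrate incubation versus DMSO and 10 µM JCP410 controls.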

The target of the assay is DPAP1 (Plasmodium falciparum, UniProt Q8IIJ9). Briefly: primary screen, percent inhibition; read by cleavage of a fluorogenic dipeptide substrate; higher = more effect of the substance. Further details: species or system P. falciparum D10 trophozoite lysates; single well.
Chain of DPAP1 (Q8IIJ9 whole entry, looked up): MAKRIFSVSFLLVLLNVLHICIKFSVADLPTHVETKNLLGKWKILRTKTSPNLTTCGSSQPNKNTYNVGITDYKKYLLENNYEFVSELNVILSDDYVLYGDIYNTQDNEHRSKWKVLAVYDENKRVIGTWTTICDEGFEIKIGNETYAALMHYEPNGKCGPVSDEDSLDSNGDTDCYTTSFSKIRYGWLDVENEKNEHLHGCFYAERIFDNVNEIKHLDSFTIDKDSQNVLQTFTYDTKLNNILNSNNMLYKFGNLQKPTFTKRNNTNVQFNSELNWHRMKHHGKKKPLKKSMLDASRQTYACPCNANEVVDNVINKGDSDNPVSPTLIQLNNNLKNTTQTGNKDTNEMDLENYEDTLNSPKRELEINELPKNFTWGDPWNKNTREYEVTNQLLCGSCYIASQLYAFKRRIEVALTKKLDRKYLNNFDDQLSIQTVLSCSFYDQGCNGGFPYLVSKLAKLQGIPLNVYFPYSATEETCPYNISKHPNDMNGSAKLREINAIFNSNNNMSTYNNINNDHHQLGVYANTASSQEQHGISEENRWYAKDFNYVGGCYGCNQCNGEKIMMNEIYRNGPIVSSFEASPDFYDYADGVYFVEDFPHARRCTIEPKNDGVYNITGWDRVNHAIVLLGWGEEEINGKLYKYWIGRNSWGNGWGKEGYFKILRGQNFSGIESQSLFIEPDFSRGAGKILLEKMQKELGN
Turning to `COCCNc1ncnc2onc(-c3cccc(Cl)c3)c12`, the “% Inhibition @ 10 uM” value is recorded as -5.76%.
For the compound `Cc1csc(NC(=O)c2cc3c(s2)-c2ccccc2OC3)n1`, the “% Inhibition @ 10 uM” value is 1.89%.
As for `CCOC(=O)N1CCC(NCCc2cccc(Cl)c2)CC1`, the figure is -1.5%; as for `COc1ccc(S(=O)(=O)Nc2ccc(CC#N)cc2)cc1OC`, -4.7%.
As for `Cc1cc(C)n(CC(O)Cn2c3ccc(Cl)cc3c3cc(Cl)ccc32)n1` (stereo not shown), the figure is 2.58%.
As for `Cc1cccc(CCNC(=O)C(NS(=O)(=O)c2cccc3nsnc23)C(C)C)c1` (stereo not shown), the figure is -0.465%; as for `CCOc1nc(-c2ccccc2)ccc1-c1noc(-c2ccc(OC)c(OC)c2)n1`, -1.33%.
With `CCCCN(C)Cc1ccc(O)c([N+](=O)[O-])c1`, the “% Inhibition @ 10 uM” value is given as -2.95%.
As for `COc1cc2c(C(=O)N3CCOCC3)c(C)n(-c3ccccc3)c2cc1Br`, the figure is 4.08%; as for `C=CCN1C(=O)NC(=O)/C(=C/c2ccc(O)c(OC)c2)C1=O`, -4.84%.
As for `O=C(Nc1nc(-c2ccc(Br)cc2)cs1)c1c(O)nc2ccccc2c1O`, the figure is -3.89%; as for `COc1ccc(CN2CCN(Cc3ccc(Cl)cc3)CC2)c(OC)c1OC`, -6.59%; as for `CCn1cc(C(=O)O)c(=O)c2cc(F)c(N(C)C)c(F)c21`, -4.31%.
As for `COc1cc(-c2nc(C)c(C(C)=O)n2O)ccc1OCC(=O)Nc1cccc(C(F)(F)F)c1`, the figure is -9.55%; as for `Cn1c(=O)c2c(ncn2Cc2ccccc2Cl)n(C)c1=O`, -8.4%; as for `Cc1ccc(C(=O)NCC2OCCc3ccccc32)cc1` (stereo not shown), -0.958%.
As for `O=C(Nc1ccc(N2CCOCC2)cc1)c1cccc2ccccc12`, the “% Inhibition @ 10 uM” value was found to be 1.96%.
Under `CN(Cc1ccccc1)C(=O)C(c1ccccc1)N1Cc2ccccc2C1=O` (stereo not shown) stands 2.71%.
Regarding `CN1c2ccccc2N(C)C1c1ccc(F)cc1`, the “% Inhibition @ 10 uM” value was determined as 5.24%.
For the compound `Cc1cccn2c(=O)c3cc(C#N)c(=O)n(Cc4ccc5c(c4)OCO5)c3nc12`, the “% Inhibition @ 10 uM” value is given as 1.12%.
As to `CCN(Cc1ccccc1)C(=O)c1cc2c(s1)-c1ccccc1OC2`, the “% Inhibition @ 10 uM” value is -1.37%.
For `COc1cc(C2C3=C(O)CCCC3=Nc3c2c(=O)n(C)c(=O)n3C)ccc1OCc1ccccc1` (stereo not shown), the “% Inhibition @ 10 uM” value was found to be 1.96%.
Regarding `CC1CC(C)CN(C(=O)c2cccnc2Cl)C1` (stereo not shown), the “% Inhibition @ 10 uM” value is -3.49%.
Under `COc1ccccc1-c1nc(S(=O)(=O)c2ccccc2)c(N2CCCCC2)o1` stands 2.49%; under `CCOc1ccc(C(=O)C2=C(O)C(=O)N(c3nnc(C)s3)C2c2ccccc2)cc1` (stereo not shown), 3.8%; under `COc1cc2c(cc1OC)CN(Cc1cc(OC)c(O)c(OC)c1)CC2`, 6.18%.
As for `NC1=NC(=O)/C(=C\c2ccc3c(c2)OCO3)S1`, the figure is 11.8%.
Under `CCN1C(=O)N/C(=C/c2cc(OC)c(OC)cc2OC)C1=O` stands -2.78%; under `COc1ccc(CN2CCN(C(=O)c3cccs3)CC2)cc1OC`, -11.6%; under `CCN1C(=O)S/C(=C/c2cn(CC(=O)Nc3ccc(F)cc3)c3ccccc23)C1=O`, -0.891%.
Consider `COc1cc2cc(C(=O)O)[nH]c2c(OC)c1OC`, for which the “% Inhibition @ 10 uM” value is on record as -2.79%.
Turning to `CC(c1ccccc1)N1C(=O)c2ccccc2C1O` (stereo not shown), the “% Inhibition @ 10 uM” value is on record as -4.74%.
Under `COc1ccc(-n2nc3c(c2NC(=O)/C=C\c2ccccc2)CS(=O)(=O)C3)cc1` stands 13.1%; under `CCOc1ccc(N2C(=O)CC(NCC34CC5CC(CC(C5)C3)C4)C2=O)cc1` (stereo not shown), 6.42%.
As for `O=c1c2ccccc2n2c(-c3cc(Br)cs3)nnc2n1Cc1ccccc1`, the figure is -7.29%.
Under `COc1ccc(-n2c3c(c(=O)[nH]c2=O)C(NC(=O)c2ccc(F)cc2)(C(F)(F)F)C(=O)N3)cc1` (stereo not shown) stands 3.57%; under `Cc1cccc(C)c1-n1c(C)cc(/C=C2/C(=N)N3C(=NC2=O)SN=C3S(C)(=O)=O)c1C`, -3.39%; under `CC[C@H](NC(=O)[C@H](Cc1c(F)cccc1F)/N=C(\NCC(F)(F)F)c1ccc(-c2ccccc2Cl)cc1)C(=O)c1nc2ccccc2o1`, -4.82%.
Regarding `CC(C)(C)C1CCc2c(sc3nnnc(O)c23)C1` (stereo not shown), the “% Inhibition @ 10 uM” value is on record as -1.16%.
Under `O=C(CSC1CC(=O)N(c2cccc(Cl)c2)C1=O)Nc1ccc(F)cc1` (stereo not shown) stands 2.13%.
As for `COc1ccc(Br)cc1CN1CCCCCC1`, the figure is -7.33%.
Turning to `CC(C)CNc1oc(/C=C/c2ccc(F)cc2)nc1C#N`, the “% Inhibition @ 10 uM” value is on record as -0.808%.
With `CCc1ccc(/C=C/C2=CC(C)(C)NC(S)=N2)cc1`, the “% Inhibition @ 10 uM” value was -1.58%.
Under `CCCCNC(=O)c1cc2c(O)nc3ccc(C)cc3c2s1` stands 2.85%; under `O=S(=O)(c1ccc(OC(F)(F)F)cc1)N1CCNCC1`, -0.671%.
As for `CC1CCC2C(=O)N(c3ccc(O)cc3)C(=O)C2C1` (stereo not shown), the figure is -2.53%; as for `CC(C)C[C@H](NC(=O)c1ccc(N2CCN(C)CC2)nc1)C(=O)NCC#N`, -2.35%.
For `COc1ccccc1-c1nc2s/c(=C\c3cccs3)c(=O)n2n1`, the “% Inhibition @ 10 uM” value was 2.24%.
As to `O=C(CCn1cccn1)NCc1ccc2c(c1)OCO2`, the “% Inhibition @ 10 uM” value is recorded as -1.56%.
As for `COCCNC(=O)Cn1ncc2c3ccccc3n(Cc3ccccc3)c2c1=O`, the figure is 3.4%.
As for `CCOC(=O)N1CCC2(CC1)OC(=O)C(C)=C2C(=O)NCc1ccccc1OCC`, the figure is -7.94%.
As for `CCc1nc(C)ccc1OCC(=O)NCCCN(C)C`, the figure is 4.01%; as for `COc1ccc(Cn2nnc(C(=O)NCCc3ccccc3)c2N)cc1Br`, -4.1%.
For `CC(=O)Nc1ccc(S(=O)(=O)Nc2ccccc2C(=O)NCC(C)C)cc1`, the “% Inhibition @ 10 uM” value was 0.726% and -7.32%.
Under `c1ccc(CN2CCN(c3nn4nnnc4c4ccccc34)CC2)cc1` stands -3.75%.
As for `Cc1nnc2sc(NC(=O)c3cccc(F)c3)nn12`, the figure is -4.69%.
For the compound `CCOc1cccc(C=O)c1OCc1cc(=O)n2ccccc2n1`, the “% Inhibition @ 10 uM” value is recorded as -9.35%.
Take `CN1CCC(N(C)C(=S)NCCc2ccccc2)CC1`: the “% Inhibition @ 10 uM” value was -2.5%.
As for `Cc1ccc(S(=O)(=O)/C(C#N)=C/c2c(Oc3ccccc3)nc3ccccn3c2=O)cc1`, the figure is 7.65%.
For `CC(C)(C)C1CCc2c(sc(NC(=O)c3ccccc3F)c2C(=O)NCCO)C1` (stereo not shown), the “% Inhibition @ 10 uM” value was 2.03%.
Under `O=C(NCCc1ccccc1)c1ccccc1NC(=O)C1CCCCC1C(=O)O` (stereo not shown) stands -0.519%; under `CCc1ccc2nc3nc(C)cc(C)c3c(N)c2c1`, -5.27%.
With `CN1CCN(c2nc(-c3ccc(C(=O)NC(Cc4cc(Cl)cc(Cl)c4)C(=O)NCC#N)cc3)cs2)CC1` (stereo not shown), the “% Inhibition @ 10 uM” value was determined as 17%.
Under `COc1ccc(-c2csc(/C(C#N)=C/c3cccs3)n2)cc1` stands 3.74%.
`O=C(NCc1ccc(F)cc1)c1cccnc1C(=O)O`: the “% Inhibition @ 10 uM” value is listed as 2.34%.
As for `COc1cccc(CCN2N=C(C)CC2=O)c1OC`, the figure is -0.999%; as for `O=C1CNC(=O)/C1=C\Nc1ccc(C2CCCCC2)cc1`, -1.06%.
As for `Cc1c(C(=O)NCc2cccc(C(F)(F)F)c2)cnn1C`, the figure is -8.75%.
Under `COc1cccc2c1c(=O)c1ccccc1n2C` stands 2.75%; under `CCn1c(NCc2ccc(O)cc2)nc2ccccc21`, 1.64%; under `Cc1ccc(-n2ncc(C(=O)N3CCCC3)c2C2CCN(C(=O)OC(C)(C)C)CC2)c(C)c1`, 0.0065%.
`CC(=O)Nc1ccc2c(c1)C(=O)Cc1ccccc1S2`: the “% Inhibition @ 10 uM” value was 4.27%.
Under `Fc1ccccc1N1CCN(Cc2c(Cl)cccc2Cl)CC1` stands 4.28%; under `COc1ccc(C(=O)C2=C(O)C(=O)N(CCCN3CCOCC3)C2c2cccnc2)cc1C` (stereo not shown), 1.67%; under `CC1CCN(CCCNC(=O)c2cc3ccc4cccnc4c3[nH]2)CC1`, -5.99%.
`CCOC(=O)C1=C(C)N(C)C(=O)NC1c1ccc(Cl)c(Cl)c1` (stereo not shown): the “% Inhibition @ 10 uM” value is -1.59%.
As for `CCOc1cc(C2C(C#N)=C(N)Oc3[nH]nc(C)c32)c(Br)cc1OCc1ccccc1` (stereo not shown), the figure is 5.48%; as for `Nc1cc(C(F)(F)F)ccc1C(=O)O`, -2.55%.
As for `CCOC(=O)C1=C(CN2CCN(C(C)CC)CC2)NC(=O)NC1c1ccc(OC)cc1` (stereo not shown), the figure is -1.31%; as for `Cc1ccccc1CSc1nc(=O)c2c(n1C)NC(=O)CC2c1cccc(O)c1` (stereo not shown), 18.5%; as for `COc1ccc(CCNc2oc(COc3ccccc3C)nc2C#N)cc1`, -7.55%.
As for `N#CC1=C(N)Oc2c(c(=O)oc3ccccc23)C1c1cccs1` (stereo not shown), the “% Inhibition @ 10 uM” value is on record as -1.98%.
Under `CCc1ccccc1NC1=C(Cl)C(=O)N(c2ccccc2)C1=O` stands -1.07%; under `COc1cc(S(=O)(=O)N2CCN(Cc3ccc(Cl)cc3)CC2)ccc1-n1cnnn1`, -6.56%; under `O/N=C1\CCCc2nnc3c(c21)CCCC3`, -3.82%.
As for `CC(C)CC(=O)N1c2ccccc2N=C2CC(C)(C)CC(O)=C2C1c1cccs1` (stereo not shown), the figure is -1.08%; as for `CCOc1ccc(C(CC(=O)O)NC(=O)c2ccc(OC)c(Br)c2)cc1OC` (stereo not shown), -4.59%; as for `CC(C)OCCCNC(=O)c1cc(-c2ccc(Br)cc2)[nH]n1`, 6.89%.
As for `CCn1ccnc1C(O)(c1ccccc1)c1ccc(C)cc1` (stereo not shown), the figure is 4.67%; as for `OC(COC1C2CC3CC(C2)CC1C3)CN1CCCCC1` (stereo not shown), -0.0369%; as for `Cc1ccc(-c2nnc3n(CCc4ccccc4)c(=O)c4ccccc4n23)s1`, -5.37%.
`O=C(COc1cc(Cl)c(Cl)cc1Cl)Nc1ccccc1`: the “% Inhibition @ 10 uM” value is on record as 0.528%.
As for `CS(=O)(=O)N(CC(=O)Nc1cc(Cl)c(Cl)cc1Cl)Cc1ccccc1`, the “% Inhibition @ 10 uM” value is -5.54%.
As for `CCCOc1ccc2c(=O)c(-c3ccccc3)coc2c1C`, the figure is 1.02%; as for `Clc1ccc2c(c1)c1c3c(nccn32)CCC1`, -0.197%.
Under `NC(=O)c1nn2c(C(F)(F)F)cc(-c3ccccc3)nc2c1Cl` stands 6.53%.
Under `CC(=O)c1ccc(NC(=O)C(C)Oc2ccccc2C)cc1` (stereo not shown) stands -5.92%.
For `Cn1c(=O)c2c(-c3ccc(Cl)cc3)n(CC3CCCO3)cc2n(C)c1=O` (stereo not shown), the “% Inhibition @ 10 uM” value worked out at 0.366%.
As for `CC(=O)c1sc(N2C(=O)C(O)=C(C(=O)c3cc4ccccc4o3)C2c2cccs2)nc1C` (stereo not shown), the figure is 6.42%; as for `CC(C)C[C@H](NC(=O)OCc1ccccc1)C(=O)NC(C#N)c1ccsc1` (stereo partly shown), 7.39%.

Values taken from publication PMC6919601, “Identification of Plasmodium dipeptidyl aminopeptidase allosteric inhibitors by high throughput screening” (PLoS ONE, 2019).
